# Test results: ChEMBL document CHEMBL5308541, “MAIP: An Open-Source Tool to Enrich High-Throughput Screening Output and Identify Novel, Druglike Molecules with Antimalarial Activity” (ACS Med Chem Lett, 2023)
# About 540 (0.36%) of roughly 150,000 compounds showed an effect of 50% or more. This is one part of the list.
# System: Plasmodium falciparum
# Test: Primary screen in NF54 nanoGlo assay, in single point, at 2uM, 72h; a lower Z score goes with more inhibition
# Assay type: functional, Erythrocyte
# Settings: timepoint 72 hour
SMILES,% Inhibition [%],Z score
O=C(C1CCN(C2CCN(Cc3nc4ccccc4[nH]3)CC2)CC1)N1CCCC1,-3,0.5
Cc1ccc2[nH]c3c(c2c1)CN(C(=O)NCCN1CCC(N(C)C)CC1)CC3,18,-3.63
CN(C)Cc1ccc([C@@H]2CCCN2c2cc(N3CCCCC3)ncn2)cc1,-9,1.58
CC1(C)CCCN(CCNC(=O)c2ccc3c(c2)C(=O)NCCO3)C1,-4,0.91
Cn1cc(-c2nc(-c3nc([C@H]4CN5CCCCC5CO4)no3)cs2)cn1 (some centres undefined),-23,4.1
Cn1cncc1C(=O)NC1CCC(Nc2nccc(-c3ccccn3)n2)C1 (centres undefined),-17,2.9
COc1ccc2oc([C@H](C)NC(=O)c3nnc4ccccc4c3O)c(C)c2c1,-1,0.12
CN(C)CCN1CCCNc2ccccc21,-1,0.11
CCN1CCN(CCCNc2nc(C)ncc2Cl)CC1,-15,2.6
Cn1cc(Nc2cccc(NC(=O)[C@@H]3CCCCN3Cc3cccnc3)c2)cn1,-7,1.04
COc1ccc(-c2cnn3ccccc23)cn1,-12,2.08
Clc1ccc(-c2n[nH]c3ccc(Nc4cc(-c5ccccc5)ncn4)cc23)cc1Cl,1,-0.21
CC(CN1CCN(C)CC1)NC(=O)C1CCN(CC2CCCc3ccccc32)C1 (centres undefined),4,-0.96
O[C@H]1CCN(Cc2ccccc2CNc2cccc(-n3ccnc3)n2)C1,94,-14.28
COc1cccc(-c2c(-c3ccccc3)ncn2[C@H]2CC[C@H](O)CC2)c1F,-1,0.15
Cc1ccncc1N1CCN(C(=O)c2ccc(OC(F)F)nc2)CC1,-10,2.21
c1ccc(CCN2CCC[C@H](CNCc3cnc(-c4ccccn4)nc3)C2)cc1,13,-2.31
COCCC1(CNC(=O)c2ccc(CN)nc2C2CC2)CCCCC1,-12,1.81
CCNc1cc(-c2nc(-c3cccn3C)cs2)ccn1,-5,1
Cc1cnccc1NCCNCc1cnc(N2CCCCC2)nc1,57,-12.25
CC(C)N(Cc1cc(-c2ccccc2)[nH]n1)C(=O)[C@@H]1CC2(CCNCC2)CN1,7,-1.21
COCc1cccc(N[C@@H](C)c2nnnn2C2CCCCC2)c1,-8,1.24
O=C(c1cc(-c2ccccc2F)n[nH]1)N1CCC(Nc2ccccn2)CC1,5,-1.04
CCN1C[C@@H](Nc2ccc(-c3nc(CCCc4ccccc4)no3)cn2)CC1=O,-7,1.57
Cc1cnc(-c2ccncc2)n1[C@H]1CCN(C2CCN(Cc3ccccc3)CC2)C1,-3,0.53
CC[C@](NCc1cnn2c1CCC2)(C(=O)O)c1ccc(Cl)cc1,-8,1.28

SMILES,% Inhibition [%],Z score
CCN(c1ccccc1F)S(=O)(=O)NC(=O)c1ccnc2ccccc12,-1,0.17
Cc1ccc(-c2cn(-c3ccccc3)nc2/C=C/C23NC(=O)CN2c2ccc(C)cc2C3(C)C)cc1 (centres undefined),-6,1.05
COCC(=O)Nc1ccc(C)c(NC(=O)c2cc(C)nc3c(C)c(C)ccc23)c1,-2,0.3
O=C1CC[C@H](N2CCN(c3ccnc(N4CCCCC4)n3)CC2)CCN1,-4,0.83
COc1ccc(CNc2nc(-c3ccc(Oc4ccc(Cl)cc4)cc3)cs2)c(C)c1OC,0,0.05
Cc1ccc2[nH]c(C(=O)N3CCC(c4c[nH]c5ncccc45)CC3)cc2c1C,17,-3.65
CC(C)CN1CCCN(c2nc(-c3ccncc3)nc3c2CNC3)CC1,-4,0.79
NC(=O)c1nc([C@@H]2CCOc3ccccc32)no1,-8,1.36
C[C@@H](c1cccc(-c2nccc3ncccc23)c1)N1CCCC1,-7,1.08
Cn1ccnc1C(=O)NCC1CCN(C(=O)C(F)(F)F)CC1,-3,0.59
O=C(NC1CCN(CC2CC2)CC1)c1n[nH]c2ccc(Cl)cc12,2,-0.48
O=C(Nc1ccc(N2CCC(NC[C@@H](c3ccncc3)N3CCOCC3)CC2)cc1)C1CCCC1,-7,1.25
O=C(NCc1cccnc1)c1ccc(N2CCC(NCC[C@H]3COc4ccccc4O3)CC2)cc1,0,0.02
CN(C)c1cc(C(F)(F)F)nc(N[C@H]2CCCN(C(=O)N3CCCC3)C2)n1,2,-0.37
CN1CC[C@H](Cn2cnc(-c3ccccc3)c2-c2cccc(F)c2F)C1,-4,0.8
CN1CCN(Cc2ccccc2-c2ccc(Oc3nccn(C)c3=O)cc2)CC1,2,-0.34
CCc1nc(N[C@H]2CC[C@@H](C(=O)N3CCCCC3)C2)c2ccsc2n1,-13,2.31
Fc1ccc(C2(NCc3ccc(F)c4cccnc34)CCOCC2)cc1,9,-1.92
Fc1ccc(-c2ccc(CNCc3cc4ccccc4[nH]3)s2)cc1,-5,0.87
CN(C[C@H]1CCCO1)S(=O)(=O)c1ccc(C(=O)Nc2cccc(-c3nc4ccccc4[nH]3)c2)cc1,-13,1.96
COCCN(Cc1ccc2c(c1)OCO2)C(=O)N[C@H]1CCCc2sccc21,4,-0.67
c1csc(C2CCN(CCNc3ncnc4ncccc34)CC2)c1,1,-0.14
CN1CCCC[C@@H]1CC(=O)N1CCC(c2cc[nH]n2)CC1,2,-0.39
CCN1C[C@H](Nc2nc(C)nc3sccc23)[C@@H](OC)C1,99,-21.25
Cn1c2ccc(C#Cc3ccccc3)cc2c2cc(C#Cc3ccccc3)ccc21,-2,0.42
Nc1nc(-c2cccc3cnccc23)c2nc[nH]c2n1,-11,1.66
